Experimental findings from ChEMBL document CHEMBL4888484, “Replenishing the malaria drug discovery pipeline: Screening and hit evaluation of the MMV Hit Generation Library 1 (HGL1) against asexual blood stage Plasmodium falciparum ,using a nano luciferase reporter read-out” (2022) are described below.

Structures are written as SMILES. In all, about 150,000 compounds went through this assay and about 540 (0.36%) showed an effect of 50% or more. This is one part of the list.

What is called % Inhibition is the change of the read-out against control, counted positive when it falls.

This experiment deals with Plasmodium falciparum. Description: Primary screen in NF54 nanoGlo assay, in single point, at 2uM, 72h; a lower Z score goes with more inhibition. It counts as functional, Erythrocyte. The following applies: timepoint 72 hour.
For the compound `O=C([C@H]1CCS(=O)(=O)C1)N(Cc1ccc(Br)cc1)c1ccc(F)cc1F`, the “% Inhibition” value was 29% and the Z score is -3.29.
With `CCn1c(-n2nc(C)nc2[C@H]2CCS(=O)(=O)C2)nc2ccccc21`, the “% Inhibition” value came to 4% and the Z score is -0.76.
For the compound `Cc1cc(N2CC[C@@]3(CCCOC3)C2)nc(C(C)C)n1`, the “% Inhibition” value is -6% and the Z score is on record as 0.76.
For `Cc1ccc(C(=O)NCC2(N3CCN(C)CC3)CCCC2)n1C`, in that order: -1% and 0.12.
The matching figures for `CCOC(=O)c1c(C)[nH]c(C(=O)N2CCC(CO)(Cc3ccccc3)CC2)c1C`: -13% and 2.39.
The matching figures for `CCOc1nc2cc(NC(=O)CC#N)ccc2o1`: -4% and 0.66.
For the compound `O=C(NCCc1nnc2n1CCCC2)c1ccc(Cl)cn1`, the “% Inhibition” value is recorded as -6% and the Z score was found to be 0.58.
On to `C[C@H](NC(=O)c1ccc(Br)cc1)C(=O)NCc1ccc(S(N)(=O)=O)cc1`, for which the “% Inhibition” value was found to be 0% and the Z score is -0.05.
As to `N#Cc1nc(C2CC2)oc1N1CCN(C(=O)COC2CCCC2)CC1`, the “% Inhibition” value came out at 2% and the Z score is -0.21.
For `CC(=O)Nc1nc(CC(=O)N(Cc2cccc(C)c2)C(C)C)n[nH]1`, in that order: 5% and -0.64.
The matching figures for `CCN(CC)C(=O)C1CCN(c2nc3nonc3nc2NC2CCCC2)CC1`: -3% and 0.61.
The matching figures for `OC1CCN(Cc2ccc(CNc3ncccc3Cl)cc2)CC1`: -8% and 1.09.
Turning to `COC1CCC2OCCN(Cc3c(F)cccc3F)C2C1` (configuration not stated), the “% Inhibition” value is -3% and the Z score turned out to be 0.28.
The matching figures for `COc1ccc(S(=O)(=O)NC[C@H]2O[C@@H](CO)[C@@H](O)[C@H]2N2CCN(c3ccccn3)CC2)cc1`: 31% and -3.46.
For `COCCC[C@H]1CCCCN1C(=O)c1c[nH]c(C)cc1=O`, in that order: -7% and 1.57.
The matching figures for `CCN(CC(=O)NC)S(=O)(=O)c1ccccc1OC(F)(F)F`: 5% and -0.9.
Regarding `COCC(=O)N[C@@H]1CCN(C(=O)Cc2ccc(F)cc2)C[C@@H]1CO`, the “% Inhibition” value turned out to be 2% and the Z score is reported as -0.23.
The matching figures for `CC(C)Cn1ncnc1CS(=O)(=O)[C@H]1CCCOC1`: -1% and 0.19.
For `CN(Cc1ccc(Br)cc1)Cn1nnc2ccccc2c1=O`, the “% Inhibition” value is reported as -16% and the Z score is listed as 2.3.
For `COC(=O)N1CCCC(C(=O)OC2CCC3CCCCC3C2)C1` (configuration not stated), in that order: -9% and 1.01.
The matching figures for `COCc1nc(OC)cc(N2CC(c3n[nH]c(C)n3)C2)n1`: -7% and 1.21.
For the compound `C[C@@H](CN(C)Cc1c(F)cccc1Cl)CS(C)(=O)=O`, the “% Inhibition” value was -4% and the Z score is reported as 0.5.
As for `CCc1nnc(CNC(=O)c2cc(CC(C)C)no2)s1`, the “% Inhibition” value is given as -14% and the Z score worked out at 1.9.
In the case of `C=CCNC(=O)c1cc(Br)cc(Br)c1OC`, the “% Inhibition” value was found to be 38% and the Z score was -1.25.
With `Cc1ccc(-c2cccc(CN(C)C3CCS(=O)(=O)CC3)c2)o1`, the “% Inhibition” value is on record as -8% and the Z score came to 1.26.
For the compound `CCN1C(=O)NC(=O)C12CCN(C(=O)CCc1scnc1C)CC2`, the “% Inhibition” value is on record as -9% and the Z score came to 1.14.
Consider `NC(=O)C(c1ccccc1)N1CCOC(c2ccc(Cl)cc2)C1` (configuration not stated), for which the “% Inhibition” value was -11% and the Z score turned out to be 1.59.
For `CCOC(=O)N1CCN(C(=O)C[C@@H]2NC(=O)N(c3ccc(C(C)C)cc3)C2=O)CC1`, the “% Inhibition” value is 7% and the Z score is reported as -0.92.
For `CCN1CCC(NCc2csnn2)C1c1cc(F)c(F)c(F)c1` (configuration not stated), in that order: 7% and -0.89.
For `CN(C(=O)[C@@H]1COc2ccc(Br)cc21)c1ccnn1C`, in that order: -6% and 0.47.
For `CCc1cc(O)nc(Cn2nnc(-c3ccccc3)n2)n1`, in that order: 34% and -3.81.
For the compound `Nc1c2c(-c3ccc(F)cc3)nc(N3CCN(C4CCCCC4)CC3)nc2nn1-c1ccc(Cl)cc1`, the “% Inhibition” value came to 19% and the Z score is -2.19.
For `CNC(=O)c1noc(CNC(=O)c2ccncc2C)n1`, in that order: -12% and 2.01.
Turning to `FC(F)(F)[C@H]1C2CCC(CC2)[C@@H]1c1nc(-c2ccncc2)no1`, the “% Inhibition” value is on record as 3% and the Z score was -0.38.
The matching figures for `CC(NC(=O)OC(C)(C)C)c1noc(CC2C=CCC2)n1` (configuration not stated): 12% and -1.65.
`COc1ccc(-c2n[nH]c3c2[C@@H](c2cccc(OC)c2)CC(=O)O3)cc1`: the “% Inhibition” value is 8% and the Z score is on record as -1.05.
As to `O[C@]1(c2ccccc2)CCN(Cc2ccncc2)C[C@H]1N1CCCC1`, the “% Inhibition” value is on record as 14% and the Z score is recorded as -1.79.
For `C1CCC2C(C1)CCCN2Cc1nc(C2CC2)no1` (configuration not stated), in that order: -11% and 1.06.
As for `CC[C@H](C)NC(=O)NCCn1nnc2cc(S(=O)(=O)NC(C)C)ccc21`, the “% Inhibition” value was -11% and the Z score turned out to be 1.15.
Regarding `Fc1ccc([C@@H]2CN(Cc3noc(C4CC4)n3)CCO2)c(Cl)c1`, the “% Inhibition” value is listed as -7% and the Z score worked out at 0.91.
For `Cn1nc2n(c1=O)C[C@@H](c1ncnn1CCc1ccccc1)CC2`, in that order: -22% and 2.53.
For `Cc1nc(-c2ccc(NC(=O)c3ccc(O)nc3)cc2)co1`, in that order: 0% and -0.03.
As to `CC(C(=O)Nc1ccc(Br)cc1Br)N1CCCC(CC(=O)O)C1` (configuration not stated), the “% Inhibition” value is -9% and the Z score was 1.09.
The matching figures for `C[C@@H](CS(C)(=O)=O)NC(=O)N(C)Cc1ccc(Cl)c(F)c1`: -11% and 1.45.
In the case of `FC(F)(F)c1ccc(C2(CNC3CCOCC3)CC2)cc1`, the “% Inhibition” value is on record as -12% and the Z score came out at 1.61.
For `COc1ccc(O[C@@H]2CNCCOC2)cc1`, in that order: -7% and 0.9.
As for `Cc1nc(CN(C)CCC[C@H]2CCCO2)cs1`, the “% Inhibition” value is given as 4% and the Z score is reported as -0.33.
Regarding `Cc1cc(C)c(OC(=O)Cn2c(C)csc2=O)c(C)c1`, the “% Inhibition” value was -11% and the Z score is recorded as 1.53.
The matching figures for `Cc1cc2ncn(-c3ccc(-n4cnnc4)nc3)c2cc1C`: -13% and 1.77.
For `Cc1cc(C)nc(CCNCc2c[nH]nc2-c2ccc(F)cc2F)n1`, in that order: 1% and -0.15.
The matching figures for `O=C(NCc1cc[nH]n1)Nc1ccncc1`: -4% and 0.69.
`N#CC1(C(=O)N2CCC3(CC2)NC(=O)NC3=O)CCCCC1`: the “% Inhibition” value is given as -4% and the Z score is recorded as 0.55.
The matching figures for `CN(C(=O)Cc1cccnc1)[C@H]1CCN(CC(F)(F)F)C1=O`: 7% and -1.12.
For the compound `Fc1ccc2oc(N3Cc4ccccc4CO3)nc2c1`, the “% Inhibition” value is given as -5% and the Z score is on record as 0.75.
The matching figures for `COc1ccc(NC(=O)c2cnn(Cc3ccccc3Cl)c2)cc1S(=O)(=O)N1CCCCC1`: -7% and 0.96.
The matching figures for `Cc1ccccc1C(=O)Cc1ncc[nH]1`: 87% and -5.77.
For `NS(=O)(=O)c1ccccc1-c1cc(NCc2cccnc2)nc2[nH]ccc12`, in that order: -9% and 1.41.
In the case of `O=C(Nc1ccc(Cl)c(Cl)c1)Nc1ccc(Cl)cc1NC(=O)Nc1ccc(Cl)c(Cl)c1`, the “% Inhibition” value is listed as 33% and the Z score is recorded as -6.17.
With `Cc1ccc([C@@H](NC(=O)N(C)CC(C)(C)O)C(C)(C)C)o1`, the “% Inhibition” value is -1% and the Z score turned out to be 0.1.
For `c1cc(-c2cn3ccsc3n2)cs1`, the “% Inhibition” value is given as -4% and the Z score was 0.61.
Consider `C[C@H](NCc1nncn1C)c1ccc(OC(C)(C)C)cc1`, for which the “% Inhibition” value is given as -8% and the Z score was found to be 0.84.
In the case of `Cn1cc(-c2cccc3c2CCC3)ccc1=O`, the “% Inhibition” value was -6% and the Z score turned out to be 0.62.
As to `COc1ccccc1C(=O)N1C[C@@H](CO)[C@H](NC(=O)c2ccccc2)C1`, the “% Inhibition” value was -17% and the Z score is 2.86.
The matching figures for `O=S(=O)(c1c(Cl)cccc1Cl)N1CC(Cn2cncn2)C1`: -16% and 1.99.
With `Cc1ccc(NC(=O)N2CCCC[C@H](N3CCN(C)CC3)C2)c(Cl)c1`, the “% Inhibition” value is recorded as -2% and the Z score is 0.23.
In the case of `CCNC(=O)[C@H]1CCN(Cc2c[nH]nc2-c2ccc(F)cc2)C1`, the “% Inhibition” value was -1% and the Z score is on record as 0.27.
With `COCCNC(=O)NCCc1cccc(F)c1F`, the “% Inhibition” value was -4% and the Z score is on record as 0.68.
For `N#Cc1ncn(CCc2ccccc2)c1C#N`, in that order: 14% and -1.79.
For `O=C(C[C@H]1C(=O)NCCN1Cc1ccc(F)cc1Cl)NCc1ccccn1`, in that order: 3% and -0.4.
For `CC(C)c1ccc(N2C[C@]34C=C[C@H](O3)C(C(=O)N3Cc5ccccc5C3)C4C2=O)cc1` (some centres not stated), in that order: -5% and 0.84.
For `CC(NC1CC(NC(=O)OC(C)(C)C)C1(C)C)c1cnn(C)n1` (configuration not stated), the “% Inhibition” value came out at 2% and the Z score is -0.19.
`CC(C)CCNC(=O)c1cc2n(n1)CCCN(Cc1ccc(Cl)cc1)C2=O`: the “% Inhibition” value is reported as -10% and the Z score worked out at 1.61.
With `Cc1nc(O)c(C(=O)NCCc2ccnn2C)cc1Br`, the “% Inhibition” value stood at 5% and the Z score is given as -0.76.
Turning to `CCCn1cc(B2OC(C)(C)C(C)(C)O2)c(C2CC2)n1`, the “% Inhibition” value was 35% and the Z score is recorded as -3.91.
The matching figures for `OC1(CNCc2ccccc2OCc2cccnc2)CCCCC1`: -35% and 4.06.
For `CC1COC(c2ccccc2)C(C)N1C(=O)C1CCCNC1` (configuration not stated), in that order: -2% and 0.28.
The matching figures for `COC(C)c1noc(CCC(=O)OC2CC3CC(C2C)C3(C)C)n1` (configuration not stated): -4% and 0.42.
Consider `C[C@@H](c1ccccc1)n1nnnc1N1CCC2(CCCO2)CC1`, for which the “% Inhibition” value is on record as -10% and the Z score is listed as 1.32.
The matching figures for `CCOc1ccc(NC(=O)c2n[nH]c3ccccc23)cn1`: -14% and 1.45.
For `O=C(c1ccccc1COC1CCOCC1)N1CCC[C@H](c2nnc[nH]2)C1`, in that order: 28% and -0.36.
For `COc1cccc(CNC(=O)CCC(=O)Nc2nnc3ccccn23)c1`, in that order: -10% and 1.14.
For `CCCN(CC(=O)c1c(C(C)C)nn(-c2ccc(C)cc2)c1O)C(=O)c1cccc(C(F)(F)F)c1`, the “% Inhibition” value was -1% and the Z score came to 0.13.
Turning to `CCCCc1nc(N2CCN(C(=O)c3ccccc3)CC2)c2c(-c3ccccc3)noc2n1`, the “% Inhibition” value is 1% and the Z score is listed as -0.14.
Turning to `CC(ON=C(N)CN1C(C)CCCC1C)c1ncc(-c2ccccc2)o1` (configuration not stated), the “% Inhibition” value was -1% and the Z score is on record as 0.15.
As to `CN1CC[C@@H]2CN(C(=O)c3ccc(-c4cn(-c5ccccc5)cn4)cc3)C[C@@H]21`, the “% Inhibition” value is 8% and the Z score is recorded as -1.29.
Regarding `CC[C@@H](CO)N(Cc1cccs1)C(=O)c1cnc2ccccn12`, the “% Inhibition” value is reported as 1% and the Z score is given as -0.2.
